The campaign covered roughly 350,000 compounds. About 31,000 (8.9%) were called active. The shares of active, inactive and inconclusive entries below differ from those in the screen. The call rests on the fitted dose curve; in most records, active means well fitted inhibition curve with a large enough effect; inconclusive means small, poorly fitted or top-dose-only effect; inactive means no such curve, though single readings can be large or run the other way. Where the call is inconclusive, the potency comes from a doubtful curve fit.
Target: Histone-lysine N-methyltransferase EHMT2 (Homo sapiens) (UniProt Q96KQ7)
Test: qHTS Assay for Inhibitors of Histone Lysine Methyltransferase G9a; further: nearly all actives have a fitted effect of over 75% in size
Settings: G9a H3K9 monomethylation, AlphaScreen, 2 h; activity, negative = inhibition: at 59 µM (top of the series) unless noted
In short: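 Methyltransferase reactions run at room temperature for 2 h (20 nM enzyme, 500 nM biotin-H3K9 peptide, 20 uM SAM) after a 15 min compound preincubation; product detected by AlphaScreen beads and anti-H3K9me1 antibody.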
On the % scale 0 is the no-effect control and ±100 the full control effect; potency means the concentration at half of the fitted maximal effect; tags describe the fitted curve by direction and shape.

Chain of UniProt Q96KQ7 (Q96KQ7 whole entry, looked up): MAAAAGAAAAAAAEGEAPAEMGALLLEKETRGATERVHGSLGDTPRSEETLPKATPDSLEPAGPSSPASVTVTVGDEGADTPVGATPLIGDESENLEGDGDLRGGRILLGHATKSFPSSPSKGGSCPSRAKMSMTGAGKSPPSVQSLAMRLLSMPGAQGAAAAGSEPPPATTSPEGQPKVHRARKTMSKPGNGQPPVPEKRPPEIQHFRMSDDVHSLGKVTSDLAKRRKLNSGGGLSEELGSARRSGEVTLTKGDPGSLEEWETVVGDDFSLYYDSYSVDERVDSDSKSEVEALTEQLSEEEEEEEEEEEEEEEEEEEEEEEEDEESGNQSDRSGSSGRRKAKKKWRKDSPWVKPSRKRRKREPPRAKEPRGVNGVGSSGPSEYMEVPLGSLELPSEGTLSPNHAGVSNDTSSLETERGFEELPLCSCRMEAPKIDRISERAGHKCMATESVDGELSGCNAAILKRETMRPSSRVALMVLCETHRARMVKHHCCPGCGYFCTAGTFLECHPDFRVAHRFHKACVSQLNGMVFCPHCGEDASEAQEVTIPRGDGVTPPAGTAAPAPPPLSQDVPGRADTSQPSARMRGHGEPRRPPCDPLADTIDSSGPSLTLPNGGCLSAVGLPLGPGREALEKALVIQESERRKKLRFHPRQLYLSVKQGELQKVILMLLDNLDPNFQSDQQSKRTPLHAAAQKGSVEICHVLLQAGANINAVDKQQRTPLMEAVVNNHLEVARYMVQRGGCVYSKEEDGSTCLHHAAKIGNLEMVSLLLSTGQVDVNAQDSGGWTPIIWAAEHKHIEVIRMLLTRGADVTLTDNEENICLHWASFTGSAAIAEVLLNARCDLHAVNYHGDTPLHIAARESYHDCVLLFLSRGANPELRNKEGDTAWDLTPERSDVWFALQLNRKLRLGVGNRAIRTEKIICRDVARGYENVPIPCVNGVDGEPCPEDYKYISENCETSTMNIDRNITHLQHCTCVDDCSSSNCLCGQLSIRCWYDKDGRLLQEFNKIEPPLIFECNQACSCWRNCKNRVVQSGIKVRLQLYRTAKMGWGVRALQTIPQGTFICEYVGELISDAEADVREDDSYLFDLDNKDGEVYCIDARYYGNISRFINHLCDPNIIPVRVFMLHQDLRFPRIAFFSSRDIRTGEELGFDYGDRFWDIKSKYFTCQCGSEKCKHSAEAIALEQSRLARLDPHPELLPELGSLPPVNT

Structure (SMILES) | Potency | activity, negative = inhibition
OC(COc1ccc2c(c1)CCC2)CN1CCN(c2ccccc2F)CC1 (centres undefined) | inconclusive: 28.2 µM [inhibitor, partial curve, poor fit] | 
Cc1cccc(C)c1OCC(O)CN1CCN(c2ccccc2)CC1 (centres undefined) | active: 70.8 µM | 
CC(C)CCN1CCN(Cc2ccc3nsnc3c2)CC1CCO (centres undefined) |  | inactive: 8.62% [at 102 µM]
COc1cccc(Cn2c(SCc3ccc(C(=O)N4CCC(C)CC4)cc3)nc3ccncc32)c1 | active: 1.78 µM | 
CC(C)(C)C(=O)Cn1ncc(Br)c(Br)c1=O |  | inactive: -12% [at 102 µM]
CCCNC(=O)CS(=O)(=O)Cc1nc(-c2ccccc2C)oc1C | inconclusive: 0.794 µM [inhibitor, full curve, poor fit] | 
Cc1cc(SC2CCOC2=O)nc2ccccc12 (centres undefined) | inconclusive: 79.4 µM [inhibitor, single point] | 
O=C(Cc1cccs1)N/N=C/c1ccccn1 | active: 1.41 µM | 
CCN(CC)C(=O)Cn1c(SCC(=O)Nc2ccc(C)c(C)c2)nc2ccccc21 |  | inactive: 22.9%
O=C(c1cc2c(s1)CCC2)N1CCN(c2ccccc2)CC1 | inconclusive: 22.4 µM [inhibitor, single point] | 
Cc1ccc(NC(=O)CCS(=O)(=O)c2cccc3nonc23)c(Br)c1 | inconclusive: 44.7 µM [inhibitor, partial curve] | 
CC(C)(C)OC(=O)N1CCC(c2c(C(=O)NCCN3CCOCC3)cnn2-c2ccccc2)CC1 |  | inactive: -2.73%
COc1ccc2oc(-c3ccc(C)c(NC(=O)c4ccc(N5CCCCC5)c([N+](=O)[O-])c4)c3)nc2c1 |  | inactive: 2.94%
CC(C)CN1CC[C@@]2(CCCN(C(=O)c3ccco3)C2)C1 |  | inactive: 2.51% [at 12.7 µM]
Cc1ccsc1/C=C1/SC(=O)N(CC(=O)N2CCOCC2)C1=O |  | inactive: 13.1% [at 102 µM]
Cc1ccc(NC(=O)CN2C(=O)C(c3ccccc3)=NC2(C)C)cc1C |  | inactive: 3.67%
CCN1/C(=C/c2cc[n+](CCCS(=O)(=O)[O-])c3ccccc23)Sc2ccccc21 | active: 25.1 µM | 
COc1ccc(C2C(C(C)=O)=C(O)C(=O)N2c2cccnc2)cc1OC (centres undefined) | inconclusive: 39.8 µM [inhibitor, single point] | 
Cc1ccccc1C(=O)Nc1ccccc1C(=O)OCc1cc(=O)n2nc(C3CC3)sc2n1 |  | inactive: 9.45%
CC(=O)Nc1ccc(S(=O)(=O)N2CCN(Cc3ccccc3[N+](=O)[O-])CC2)cc1 | inconclusive: 31.6 µM [inhibitor, partial curve, poor fit] | 
CN1CCN(c2ncc3c(n2)CCN(Cc2ccccc2Cl)C3)CC1 | inconclusive: 28.2 µM [inhibitor, single point] | 
Cc1ccc(-n2ncc3c(NCCc4ccccc4)ncnc32)cc1 |  | inactive: 12.4%
Cc1ccc[n+](Cc2ccc([N+](=O)[O-])cc2)c1 | inconclusive: 89.1 µM [inhibitor, partial curve, poor fit] | 

Structure (SMILES) | Potency | activity, negative = inhibition
CC(=O)Nc1ccc(CN2CCN(C3CCCCC3)C(CCO)C2)cc1 (centres undefined) | inconclusive: 39.8 µM [inhibitor, single point] | 
Cc1onc(-c2ccccc2Cl)c1C(=O)NCc1nc(-c2ccccc2)no1 | inconclusive: 1.58 µM [inhibitor, single point] | 
O=[N+]([O-])C1=C(Nc2cccc3ccccc23)CS(=O)(=O)C1 | inconclusive: 89.1 µM [inhibitor, single point] | 
CN(O)C(=O)Nc1ccc([N+](=O)[O-])cc1 | inconclusive: 35.5 µM [inhibitor, single point] | 
Cc1ccc(S(=O)(=O)N2CCC(C(=O)OC(C)C(=O)N(C)c3ccccc3)CC2)cc1C (centres undefined) |  | inactive: 9.06% [at 12.7 µM]
CCN(CC)c1ccc2nc3ccc(N)cc3[n+](-c3ccccc3)c2c1 |  | inactive: -32.6% [at 0.501 µM]
Cc1cc(=O)n(CC(C)O)c(O)c1C#N (centres undefined) | active: 10 µM | 
CCN1CCN(CC(O)COC(c2ccccc2)c2ccccc2C)CC1 (centres undefined) | active: 3.16 µM | 
CC(C)C(=O)c1cn(CC(=O)O)c2ccccc12 |  | inactive: -32% [at 102 µM]
COc1ccc(CCNC(=O)Cn2c(C)c3cnn(-c4ccccc4)c(=O)c3c2C)cc1OC |  | inactive: 2.8%
O=C(CSc1nncs1)N1CCN(C(=O)c2ccco2)CC1 | inconclusive: 12.6 µM [inhibitor, partial curve] | 
COc1cccc(C(=O)C2CCCN(C/C=C/c3ccccc3OC)C2)c1 (centres undefined) |  | inactive: -42.6% [at 102 µM]
Cc1ccc(-n2c(SCC(=O)N3CCC(C(=O)O)CC3)nc3ccccc3c2=O)cc1C |  | inactive: -50.2% [at 102 µM]
COC(=O)CCNC(=O)Cc1c(C)n(C(=O)c2ccc(Cl)cc2)c2ccc(OC)cc12 | active: 50.1 µM | 
CCOc1ccc(C(=O)N2CCN(C(=O)c3ccco3)CC2)cc1OCC |  | inactive: 22.8% [at 12.7 µM]
CCOC(=O)c1[nH]c(C)c(C(=O)N2CCN(c3ccc(OC)cc3)CC2)c1C | inconclusive: 39.8 µM [inhibitor, full curve, poor fit] | 
CCOC(=O)c1ccc(N2Cc3cc(C)c(C)cc3C2)cc1O | inconclusive: 31.6 µM [inhibitor, partial curve] | 
CCN1CCN(c2nc3c(C)cccn3c(=O)c2/C=C(\C#N)C(=O)NCCCOC)CC1 | inconclusive: 89.1 µM [inhibitor, single point] | 
O=[N+]([O-])c1ccccc1S(=O)(=O)Nc1nc2ccccc2s1 | inconclusive: 89.1 µM [inhibitor, single point] | 
CCSc1oc(-c2cccs2)nc1S(=O)(=O)c1ccccc1 | inconclusive: 7.08 µM [inhibitor, full curve, poor fit] | 
Cc1cc(N)n(-c2ccc(Oc3ccccc3)c(S(=O)(=O)O)c2)n1 | active: 50.1 µM | 
NC(N)=NS(=O)(=O)c1ccc(NC(=S)NC(=O)c2sc3ccccc3c2Cl)cc1 | inconclusive: 0.562 µM [inhibitor, full curve, poor fit] | 
COc1ccc2ccccc2c1/C=N/NC(=O)c1nnn(-c2nonc2N)c1CN(C)C |  | inactive: 62.4% [at 102 µM]

Structure (SMILES) | Potency | activity, negative = inhibition
Cn1c(=O)[nH]c(=O)c2c1nc(CN1CCN(c3cccc(Cl)c3)CC1)n2CCc1ccccc1 | inconclusive: 2.51 µM [inhibitor, partial curve, poor fit] | 
CC(C)(C)n1nnnc1CN1CCSCC1 | inconclusive: 56.2 µM [inhibitor, partial curve, poor fit] | 
O[N+]1=CC=CCC1=S.On1ccccc1=S.[Zn] |  | inconclusive: -61.7% [inhibitor] [at 2.33 µM]
Cc1ccc(NC(=O)N(Cc2ccc3c(c2)OCO3)Cc2cc3cc4c(cc3[nH]c2=O)OCCO4)cc1 | inconclusive: 50.1 µM [inhibitor, partial curve] | 
CCCOc1ccccc1NC(=O)c1ccc([N+](=O)[O-])cc1 | inconclusive: 20 µM [inhibitor, single point] | 
CCCCn1c(-c2csc3c2CCCC3)n[nH]c1=S | inconclusive: 1.58 µM [inhibitor, full curve, poor fit] | 
CCCOc1ccc(C2C(C(=O)c3ccco3)=C(O)C(=O)N2CCCn2ccnc2)cc1 (centres undefined) | inconclusive: 31.6 µM [inhibitor, partial curve, poor fit] | 
CN1CCN(c2cc(C(F)(F)F)nc(-c3ccccn3)n2)CC1 | inconclusive: 89.1 µM [inhibitor, partial curve, poor fit] | 
CCS(=O)(=O)Nc1ccc(C(=O)CC2(O)C(=O)Nc3ccc(Br)cc32)cc1 (centres undefined) |  | inactive: -23.4% [at 102 µM]
O=S(=O)(c1ccc(F)c(Cl)c1)N1CCN(C/C=C/c2ccccc2)CC1 | inconclusive: 3.16 µM [inhibitor, partial curve, poor fit] | 
C=CCc1ccccc1OCC(O)CN1CCN(c2ccc(OC)cc2)CC1 (centres undefined) |  | inconclusive: -101% [inhibitor]
CNc1nc(C)c(C(C)(C)C)s1 | inconclusive: 35.5 µM [inhibitor, single point] | 
CCOC(=O)c1ccc(OCC2c3cc(OC)c(OC)cc3CCN2C(=O)Cc2ccc(OC)c(OC)c2)cc1 (centres undefined) | inconclusive: 31.6 µM [inhibitor, partial curve, poor fit] | 
O=[N+]([O-])c1cccc(-c2nc(-c3cccs3)c(-c3cccs3)[nH]2)c1 | inconclusive: 79.4 µM [inhibitor, single point] | 
CCn1c(SCC(=O)c2cccs2)nnc1-c1cccs1 | inconclusive: 79.4 µM [inhibitor, partial curve, poor fit] | 
O=C1CC(N2CCC(c3nc4ccccc4o3)CC2)C(=O)N1c1cc(Cl)cc(Cl)c1 (centres undefined) | inconclusive: 50.1 µM [inhibitor, partial curve] | 
CNC(=O)c1ccc(NC(=O)c2nsc3ccccc23)cc1 |  | inactive: 1.53%
CN(c1ccccc1)S(=O)(=O)c1cccc(NC(=O)CN2C(=O)NC3(CCCC3)C2=O)c1 | active: 56.2 µM | 
CC1NC(=O)NC1CCCCCC(=O)Nc1ccc(F)cc1 (centres undefined) | inconclusive: 1.26 µM [inhibitor, full curve, poor fit] | 
CCC1CCCCN1C(=O)CSc1nnc2nc(C)cc(C)n12 (centres undefined) | inconclusive: 15.8 µM [inhibitor, single point] | 
Cc1cc(-c2ccc(NC(=O)[C@@H]3CCCC[C@@H]3C(=O)O)c(C)c2)ccc1NC(=O)[C@@H]1CCCC[C@@H]1C(=O)O | inconclusive: 89.1 µM [inhibitor, partial curve, poor fit] | 
Cc1ccc(N2CC(c3nnc(Cc4ccc(F)cc4Cl)o3)CC2=O)cc1 (centres undefined) |  | inactive: -27.5%
O=C(CSc1nnnn1-c1ccc(F)cc1)Nc1ccc(N2CCOCC2)c(Cl)c1 | inconclusive: 89.1 µM [inhibitor, single point] | 
